# Measured values taken from the supplement of paper PMC11417369.
# Some of the results follow.
# Tested on: PfAP2-HC AP2 domain (GST-tagged)
# Experiment: gcPBM binding intensity (ln(normalized median fluorescence intensity)); higher = stronger DNA binding
# How it was run: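 An Agilent 4 × 180k array carrying primer-extended double-stranded 36-bp intergenic genomic probes and negative controls received GST-tagged P. falciparum DNA-binding domains expressed in E. coli, about 25 μg on average, for 1 h. The binding buffer contained 1× PBS, 1% milk, 0.2 mg/ml BSA, 0.5% salmon testes DNA and 0.03% Triton X-100. Binding intensity is the top Masliner-normalised natural-log median intensity across replicate spots of either probe orientation, read after Alexa488 anti-GST antibody staining and a 488 nm scan.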
row,Sequence,gcPBM binding intensity (ln)
1,ATATTCATATATACTTCACACACATTTTATCATTCA [CACACA_site8784],10
2,ATGAAAGTAAGACATGCATGGAATTTTTTTTATTAG [TGCATGCA_site348],9.68
3,TTTTTTGTGTTTGGTACACACGTTATAAAAAATAAA [CACACA_site4866],9.56
4,TTTTTTTTTTTTGAAGTGCATTACTTTTTTTGTATT [GTGCAC_site9811],9.46
5,GAAAATAGCTAAAATACACACAATTAAAAATTATTA [CACACA_site3506],9.74
6,AGGAATATAAAGTGCACACATAATTTGGGGGCAAAA [CACACA_site258],10.1
7,ATATGTCACTTGTATACACACATATATATTTCAATC [CACACA_site3256],10.1
8,CTGAAAAAAAAGCTTGCACACGTATTTGCTTTATGT [CACACA_site8427],10
9,TTACTTATAAATAAATATACAAAAATGTTATATATA [XGTACX_negctrl_site223],9.39
10,TTTTTTTTTTTTTGCACACACATTGAATTATTATTC [CACACA_site197],10.2
11,ATAAGAAAATATAAAATGCACACTATAAATTGTATA [CACACA_site143],9.84
12,TATATAGAGAGATATGCACACTGTATGAATGCCCCC [CACACA_site5476],10.1
13,TATACCTATATACATACATGCAAATATATATTCATA [TGCATGCA_site269],9.63
14,TTGTAAAACTTATAATGTACATTTTTTTTTTTTTTT [XGTACX_site5398],9.47
15,AGGGACATCTATATCACACACAAAAATTAGTCCCTT [CACACA_site7330],9.88
16,TATTTCTGATTACATACACACATATACAGATATGAC [CACACA_site7490],9.77
17,TATATACCTATATACACACACATATATAAATAAATA [CACACA_site7341],10.1
18,TTTACCTCTTCAATGGTGCAATAACTCAAAAATTTG,9.46
19,TTTTTATTTTATTAGTGTACTTTATATTTAACAATA [XGTACX_site1175],9.64
20,AAAAAAAAAAAAAGTACACACATACCTATAAATATA [CACACA_site6937],10.5
21,ATAAATAAAATAAAAGCACACAAAATGTAAATAATT [CACACA_site8895],10.2
22,TTTATATACATTTTAAATTTTAATGTAACCCATGGG [TGCATGCA_negctrl_site115],9.23

row,Sequence,gcPBM binding intensity (ln)
1,TATATATTTATAAATGAACACACACCCAATTTGAAT [CACACA_site9113],10.8
2,TTTATTTTTATAAGAGCATGCACTGTTTAAAATGGT [TGCATGCA_site628],9.37
3,TTATATATAATATATACACACACATGTATATATAAA [CACACA_site8603],9.94
4,TATGTTCCATTTTTTGGTACACATACAATAACTGCT [XGTACX_site2256],9.55
5,ATTACATACGAGCACACGTAAAAGTATAATATAAAA [GTGCAC_negctrl_site446],9.79
6,TTTGTATTGTGCAGATGTACATTATAATATTGGATT [XGTACX_site5033],9.59
7,AACAAATACAAAGAATAGTCATCTGAATGGTGTTAT [GTGCAC_negctrl_site685],9.98
8,AAATTAATAAGTCACACACACATATATAATATATAT [CACACA_site799],10.4
9,AATATATACATTTATATACACACCTATATATATATA [CACACA_site1972],9.83
10,GTTATATGTTATATATATATATATATATATATATAT [TGCATGCA_negctrl_site428],9.86
11,AGCATCATTTTACACACATGCAAATGTAAAATAGGA [TGCATGCA_site460],9.83
12,CATATACATATATGTAGTACGTGTTCTTCTATATGA [XGTACX_site8344],9.69
13,TACATATACAGACACACACACACACCCCCACAAAAA [CACACA_site495],10.8
14,ATTAATATGAAACGATTATAAGAAAGAAAAGAAATG [GTGCAC_negctrl_site701],9.7
15,AAATTGAATTAGTTAACACACAACTTTTATTTCATA [CACACA_site2840],9.73
16,TATATATATTTATGTACACACATCAATCATATTAAC [CACACA_site5127],9.88
17,ATAAAGATTAATTCAAGTACACATCAAATACTACAA [XGTACX_site8794],9.88
18,TGTATACATTCTGAATGTACGGAACACCTCATAACT [XGTACX_site7240],9.56
19,TTTGTAATAAATAAGAGTACAAGTATGGTTCCACTA [XGTACX_site2579],9.67
20,TATTTATTGTGACACTTATATTATTTTATGATTAAA [CACACA_negctrl_site525],9.58
21,AATAATACATCCTTAGTGCAGAAATAAAAATTAAGC [GTGCAC_site9955],9.74
22,TATAAAATGATGATATGTACTTATGTAGTTTTTTTA [XGTACX_site8711],9.59

row,Sequence,gcPBM binding intensity (ln)
1,TTTTCATTTGTGACAGTGCAAAATGTTATATTAAAA [GTGCAC_site9647],9.42
2,AATATATGGTTTCATGATATTAAATTCAAAATAATG [CACACA_negctrl_site318],9.54
3,CATATATATTTTATTTGTACGTATAAAAAAACAAAA [XGTACX_site4253],9.51
4,ATATGAAAAAGAACTTGTACTAAAGTGGCATATTAT [XGTACX_site8520],9.77
5,TAAATACTTGTATATAGTACAAGTTGTTTTTTTTAA [XGTACX_site5643],9.35
6,AAAAAAAAAAAAAACACACACATATAAATATAAATA [CACACA_site6972],10.4
7,TGGAACCTTTAAAATACACACCCAAATCCTTTGAAA [CACACA_site7671],9.79
8,ATTATTTGAAACTATTGTACATTTAAAAACATTTTT [XGTACX_site4896],9.46
9,ATTGGACTATAAATAGGTACACATATATATATATAT [XGTACX_site7562],10.3
10,TCATATATTCAAAAATTTAAAGTTAATAAAACTTGA [CACACA_negctrl_site1546],9.06
11,TTATATTATGTTCAATCAAAAATTATTTTTAAAAAA [XGTACX_negctrl_site595],8.98
12,AATGTGTTTTTTTTTTTTTTTTTTTTCAATCTCTAT [CACACA_negctrl_site794],9.49
13,GAAAAAAGAAAAAAAAGTACACACATGTATATTAAT [XGTACX_site5265],9.87
14,AATGTACACCCACCCACACACAAACAAATATATATA [CACACA_site5521],10.3
15,TTTTTGTTTGAACACTGTACGTATAAATATAAAAGT [XGTACX_site6476],9.54
16,TTTCAAATTTAATACACACACAAGTATATATTTATC [CACACA_site3947],9.88
17,TTGTGTTATCACACGAAGGGGATAAGACATAAATGT [TGCATGCA_negctrl_site368],9.58
18,TATATATAAAAACACACACACACACCCTATAATTAT [CACACA_site4063],11.3
19,TAAGACAATAAATGCTGTACAATTGAATATCTTGGA [XGTACX_site636],9.64
20,TTATAAAAATTTAGTTGTACATGTCAAATTATCAAT [XGTACX_site7229],9.47
21,TTTTTTGTACCAAAAAAAAAAAAAAGAAAAAAAAAC [CACACA_negctrl_site1416],9.41
22,TATTTTATTATTATTATTTCTTTATAGTGTATTCTA [CACACA_negctrl_site517],9.65

row,Sequence,gcPBM binding intensity (ln)
1,TTTTCGTAACTGATTCAACACACAAAAGGGGGAAAA [CACACA_site8517],9.77
2,AATATATAGCTAAAAACACACAAATATATACACATA [CACACA_site9203],9.97
3,TATTTTATTATTATTATTAGTATGATTTCTTTATAG [CACACA_negctrl_site550],9.5
4,GGATAGGCATAACATAGTACGTACAAATATATATAT [XGTACX_site454],9.74
5,ATAAAAAAAAAAACAGTAAAATTATAATTATAATTA [TGCATGCA_negctrl_site356],9.59
6,TTAACAAATAAACACACACACACACCCAAAAAAAAA [CACACA_site8068],11.1
7,AAAAGCACAAAAAATACACACACAAAAAATAAAAAA [CACACA_site8545],10.2
8,TAATGATAAATACATACACACAAAAAATGATATATA [CACACA_site7258],9.95
9,TATATCCCTTAGAATACACACCCATATGAGTGTGAA [CACACA_site8965],9.48
10,AATGTAAAATCTTCATATACATTTAAGTCTGTATTT [TGCATGCA_negctrl_site183],9.74
11,ACAAAAATTAAATAAAGTACATTTTTAAAATACGTA [XGTACX_site3880],9.64
12,AGCTGAAAAAAAAGCTTGCACACGTATTTGCTTTAT [CACACA_site1512],9.81
13,CATATTATATTCTGCTTACACACATATATATATATA [CACACA_site3059],9.9
14,TTTTTTTGTTATATCCTGCACTTCTTAACTATATTA [GTGCAC_site9807],9.83
15,AATAATAAGAATAACGCATGCACATATAATATAGAA [TGCATGCA_site3],10
16,AATATGTAGTAATCAAGTACTAATGTCTTAATTCGG [XGTACX_site308],9.58
17,GTTTTTTATATAAGGTGGTCAACATTGTAATGTTAA [XGTACX_site3204],9.54
18,ATATAAATTGGCAATAGTACATAAAGGCATAGAAAG [XGTACX_site2674],9.87
19,GTATATATGTATATGTGTACACATATTCTTAACTCA [XGTACX_site309],10.2
20,AAATTACACATCCATACACACATATTTTTTTTAATT [CACACA_site5242],10
21,AATAATAGAAGCACCCACCCACCACCACCCACACAT [CACACA_negctrl_site1033],10.9
